According to the supplement of paper PMC8813932:
Where a name gives a salt, the structure may show the parent alone. ± gives the standard deviation of the averaged measurements. Some of the results follow. Many values rest on one well or one pass, so single values are uncertain.

Key:
Test in all cases: log2 surviving fraction relative to plate median (drug vs vehicle, or drug+dl922-947 vs dl922-947 alone); ovarian cancer lines: OVCAR4 is platinum-sensitive while Ov4Cis resists cisplatin and Ov4Carbo carboplatin; higher = more cell survival
Settings in all cases: compound concentration: 10 uM, 192 h
OVCAR4 = system: OVCAR4
Ov4Carbo = system: Ov4Carbo
Ov4Cis = system: Ov4Cis
[1] = dl922-947 oncolytic adenovirus co-treatment: MOI 10
[2] = dl922-947 oncolytic adenovirus co-treatment: none

Row | SMILES | log2 surviving fraction (OVCAR4; [1]) | log2 surviving fraction (OVCAR4; [2]) | log2 surviving fraction (Ov4Carbo; [1]) | log2 surviving fraction (Ov4Carbo; [2]) | log2 surviving fraction (Ov4Cis; [1]) | log2 surviving fraction (Ov4Cis; [2])
1 | CN(CCOc1ccc(CC2SC(=O)NC2=O)cc1)c1ccccn1 (centres undefined) [Rosiglitazone HCl] | 1.26 ± 0.035 | 1.21 ± 0.98 | 0.0453 | 0.114 | 0.554 | 1.03
2 | CC(=O)OCC(=O)[C@@]1(O)CC[C@H]2[C@@H]3CCC4=CC(=O)C=C[C@]4(C)[C@@]3(Cl)[C@@H](Cl)C[C@@]21C [Dichlorisone Acetate] | 1.4 ± 0.23 | 0.0959 ± 0.14 | 1.14 | -0.308 | 1.9 | -1.18
3 | CCN(Cc1ccncc1)C(=O)C(CO)c1ccccc1 (centres undefined) [Tropicamide] | 0.455 ± 0.34 | 0.793 ± 0.41 | -1.03 | 0.0659 | 0.523 | 1.82
4 | Cc1cccc(Cc2c[nH]cn2)c1C [Detomidine HCl] | 0.113 ± 0.12 | 0.361 ± 0.12 | -1.04 | 0.0121 | -0.0388 | 0.141
5 | NS(=O)(=O)c1cc2c(cc1Cl)N=CNS2(=O)=O [Chlorothiazide] | 1.03 ± 0.33 | 0.801 ± 1.2 | 1.28 | -0.299 | 0.354 | 1.26
6 | C[N+]1(C)[C@@H]2C[C@@H](OC(=O)[C@H](CO)c3ccccc3)C[C@H]1[C@@H]1O[C@@H]12 [Methscopolamine (Pamine)] | 0.347 ± 0.061 | 0.0275 ± 0.13 | 1.09 | -0.555 | -0.367 | 0.388
7 | N=C(N)NCCN1CCCCCCC1 [Guanethidine Sulfate] | 0.117 ± 0.18 | 0.565 ± 1 | 0.57 | 0.2 | 0.174 | 0.325
8 | C[C@H]1[C@H](NC(=O)/C(=N\OC(C)(C)C(=O)O)c2csc(N)n2)C(=O)N1S(=O)(=O)O [Aztreonam (Azactam, Cayston)] | 0.31 ± 0.29 | 0.118 ± 0.6 | 0.243 | -0.589 | 0.563 | 0.767
9 | CC(=O)/N=c1/sc(S(N)(=O)=O)nn1C [Methazolamide] | -0.233 ± 0.32 | -0.0624 ± 0.54 | -2.65 | 0.361 | -0.625 | -0.558
10 | N#CC[C@H](C1CCCC1)n1cc(-c2ncnc3[nH]ccc23)cn1 | -0.0833 ± 0.23 | 0.461 ± 0.032 | -0.151 | -0.0662 | -0.154 | 0.251
11 | CN(Cc1cnc2nc(N)nc(N)c2n1)c1ccc(C(=O)N[C@@H](CCC(=O)O)C(=O)O)cc1 [Abitrexate (Methotrexate)] | -1 ± 0.29 | -1.02 ± 2.8 | -2.88 | -4.72 | 0.34 | -0.135
12 | O=S(=O)(F)Cc1ccccc1 [PMSF (Phenylmethylsulfonyl Fluoride)] | -0.384 ± 0.46 | 0.621 ± 0.57 | -0.686 | -0.722 | 0.136 | -1.11
13 | O=c1cc[nH]c(=O)[nH]1 [Uracil] | 0.241 ± 0.45 | 0.0209 ± 0.017 | 1.53 | 0.59 | 0.609 | 0.0918
14 | Cc1nccn1CC1CCc2c(c3ccccc3n2C)C1=O (centres undefined) [Ondansetron (Zofran)] | -0.157 ± 0.033 | -0.219 ± 0.3 | -0.831 | 0.278 | 0.199 | 0.0937
15 | COc1cc2/c(=N/c3ccc(Br)cc3F)nc[nH]c2cc1OCC1CCN(C)CC1 [Vandetanib (Zactima)] | -0.337 ± 0.69 | -5.12 ± 3.7 | -1.48 | -4.9 | -0.167 | -0.411
16 | Nc1c(CC(=O)O)cccc1C(=O)c1ccccc1 [Amfenac Sodium (monohydrate)] | 0.0944 ± 0.4 | -0.386 ± 1.3 | -0.591 | -7.54 | -1.22 | -0.121
17 | N[C@H](C(=O)O)[C@H](O)c1ccc(O)c(O)c1 [Droxidopa (L-DOPS)] | 0.0483 ± 0.54 | 0.926 ± 0.83 | -0.0855 | 1.08 | -0.285 | -1.71
18 | C[C@@H](O)[C@H]1C(=O)N2C(C(=O)O)=C(S[C@@H]3CN[C@H](C(=O)N(C)C)C3)[C@H](C)[C@H]12 [Meropenem] | -0.111 ± 0.67 | -0.407 ± 1 | 0.546 | -0.483 | -0.413 | -0.616
19 | O=C(O)c1cccnc1Nc1cccc(C(F)(F)F)c1 [Niflumic acid] | -1.35 ± 0.14 | -0.475 ± 0.36 | 0.216 | -0.297 | -0.162 | -0.57
20 | COc1ccc(CN2CCN(C(c3ccc(F)cc3)c3ccc(F)cc3)CC2)c(OC)c1OC [Lomerizine HCl] | -0.664 ± 0.41 | 0.162 ± 1.9 | -0.0476 | -0.588 | -2.25 | -2.4
21 | CN1[C@@H]2CC[C@H]1C[C@@H](OC(=O)C(CO)c1ccccc1)C2 (some centres undefined) [Atropine] | -1.76 ± 0.14 | -2.8 ± 0.93 | -0.889 | -2.2 | -1.43 | -4.19
22 | CN1[C@@H]2C[C@@H](OC(=O)[C@H](CO)c3ccccc3)C[C@H]1[C@@H]1O[C@@H]12 [Scopolamine hydrobromide] | 0.288 ± 0.65 | 0.644 ± 0.18 | -0.251 | -0.349 | 0.667 | 0.636
23 | O=C(O[C@H]1CN2CCC1CC2)N1CCc2ccccc2[C@@H]1c1ccccc1 [Solifenacin succinate] | -2.24 ± 0.99 | 0.157 ± 0.16 | -3.72 | 1.51 | -3.89 | -1.86
24 | CCCCCCCCCC(=O)N[C@@H](Cc1c[nH]c2ccccc12)C(=O)N[C@H](CC(N)=O)C(=O)N[C@@H](CC(=O)O)C(=O)N[C@@H]1C(=O)NCC(=O)N[C@@H](CCCN)C(=O)N[C@@H](CC(=O)O)C(=O)N[C@H](C)C(=O)N[C@@H](CC(=O)O)C(=O)NCC(=O)N[C@H](CO)C(=O)N[C@@H]([C@H](C)CC(=O)O)C(=O)N[C@@H](CC(=O)c2ccccc2N)C(=O)O[C@@H]1C [Daptomycin] | -0.476 ± 0.11 | 0.0487 ± 0.72 | 0.106 | -0.481 | 0.151 | -0.223
